Data published in article PMC5496739.
Residue numbers refer to the chain shown, from its start. No constants are given. Whether binding was seen depends on the method and setting. Binding seen in cells or lysates may run through a third protein. Some binding calls cover weakened binding; strength is not graded here.

T1: MEF-exophilin-8 (wild type) (mouse) (UniProt Q8K3I4)
T1 sequence: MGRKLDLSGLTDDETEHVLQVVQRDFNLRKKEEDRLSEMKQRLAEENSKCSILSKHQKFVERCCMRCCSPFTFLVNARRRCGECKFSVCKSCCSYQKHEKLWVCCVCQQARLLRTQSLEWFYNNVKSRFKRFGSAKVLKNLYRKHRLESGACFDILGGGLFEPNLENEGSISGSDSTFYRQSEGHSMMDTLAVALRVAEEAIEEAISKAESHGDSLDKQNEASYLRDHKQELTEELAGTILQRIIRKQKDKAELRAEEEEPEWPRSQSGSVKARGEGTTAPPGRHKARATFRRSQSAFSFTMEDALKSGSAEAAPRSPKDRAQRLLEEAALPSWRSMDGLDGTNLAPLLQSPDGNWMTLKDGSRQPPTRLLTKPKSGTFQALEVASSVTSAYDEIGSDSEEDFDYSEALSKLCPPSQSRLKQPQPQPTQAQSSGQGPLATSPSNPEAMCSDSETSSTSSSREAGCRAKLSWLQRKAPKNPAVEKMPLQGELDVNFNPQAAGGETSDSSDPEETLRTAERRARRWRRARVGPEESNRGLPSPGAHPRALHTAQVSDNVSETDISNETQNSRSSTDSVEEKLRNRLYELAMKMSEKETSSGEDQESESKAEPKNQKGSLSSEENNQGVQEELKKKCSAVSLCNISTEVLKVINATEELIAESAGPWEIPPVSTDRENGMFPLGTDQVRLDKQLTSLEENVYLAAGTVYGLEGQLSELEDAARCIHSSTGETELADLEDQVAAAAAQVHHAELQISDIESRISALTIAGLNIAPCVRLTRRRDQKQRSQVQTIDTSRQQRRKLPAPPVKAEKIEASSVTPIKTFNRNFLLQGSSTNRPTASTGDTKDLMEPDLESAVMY

T2: MEF-exophilin-8 PA (ABD) mutant (mouse) (UniProt Q8K3I4)
T2 sequence: T1 sequence with R798A, P801A, P804A

T3: exophilin-8 PA (ABD) mutant expressed in HEK293A cells (mouse) (UniProt Q8K3I4)
T3 sequence: T1 sequence with R798A, P801A, P804A

T4: exophilin-8 PA (MBD) mutant expressed in HEK293A cells (mouse) (UniProt Q8K3I4)
T4 sequence: T1 sequence with R474A, P477A, P480A

T5: exophilin-8 (wild type) expressed in HEK293A cells (mouse) (UniProt Q8K3I4)
T5 sequence: T1 sequence

B1: RIM-BP2, endogenous in MIN6 cells (protein, UniProt Q80U40 1-1072)
chain: MREAAERRQQLELEHEQALAFLNAKQQEIQLLQQAQVEAKKEHEGAVQLLESKVRELEEKCRVQSEQFNLLSRDLEKFRQHTGSIDLLGSSSVALLDVPLAPGKPFPQYMNGLATSIHKGHEGPTGHYSVIGDYIPLSGDKLESPCVKPSFLLRSSSPRCRFESEMDNDRNSNNSKQSSSGKVHLCVARYSYNPFDGPNENPEAELPLTAGKYLYVYGDMDEDGFYEGELLDGQRGLVPSNFVDFIQDNESRLAGTLGSEQDQNFLNHSGISLERDSILHLHSPTQVDSGITDNGGGTLDVNIDDIGEDTVPYPRKITLIKQLAKSVIVGWEPPAVPPGWGTVSSYNVLVDKETRMSLALGRRTKALIEKLNTAACTYRISVQCVTSRGNSDELQCTLLVGKDVVVAPSQLRVDNITQISAQLSWLPTNSNYSHIIFLNEEELDIVKAARYKYQFFNLRPNMAYKVKVLAQPHQMPWQLPLEQREKKEACVEFSTLPAGPPAPPQDVTVHAGATAASVQVSWKPPALTPTGLSNGANVTGYGVYAKGQRVAEVIAPTADGTAVELIRLRSLEAKAVSVRTLSVQGESMDSALAAIPPDLLVPPAPHPRTAPPPKPLASDMDTKDQHLGPHVKVDESWEQSRSPGPAHGHMLEPPDMHSAGPGRRSPSPSRILPQPQGAPVSTTVAKAMAREAAQRVAESNRLEKRSLFLEQSSAGQYTNSDEEDGYASPEVKRRGTSVDDFLKGSELGKQPHCCHGDEYHTESSRGSDLSDIMEEDEEELYSEMQLEDGGRRRPSGTSHNALKILGNSTLMGRADRMEHVSRRYSHSGGGSHRHRPAMAPSIDEYTGRDHLSPDFYDESETDPGAEELPARIFVALFDYDPLTMSPNPDAAEEELPFKEGQIIKVYGDKDADGFYRGETCARLGLIPCNMVSEIHADDEEMMDQLLRQGFLPLNTPVEKIERSRRSGRGHSVPTRRMVALYDYDPRESSPNVDVEAELPFCTGDIITVFGEIDEDGFYYGELNGQKGLVPSNFLEEVPDDVEVHLSDAPPHYSHDPPMRSKAKRKKSVHFTP
B2: RIM-BP2 expressed in HEK293A cells (co-immunoprecipitations of Figure 4C,D) (protein, UniProt Q80U40 1-1072)
chain: B1 chain

Legend:
[1] = target: T1, MEF-exophilin-8 (wild type) (mouse); assay: co-IP; MIN6 cells infected with adenovirus encoding MEF-tagged exophilin-8 or control GFP; anti-FLAG immunoprecipitates blotted with anti-RIM-BP2
[2] = target: T2, MEF-exophilin-8 PA (ABD) mutant (mouse); assay: as above
[3] = target: T3, exophilin-8 PA (ABD) mutant expressed in HEK293A cells (mouse); assay: co-IP; HEK293A cells transfected with plasmids for RIM-BP2, exophilin-8 and their deletion or point mutants; immunoprecipitates with anti-FLAG or anti-HA antibodies blotted with anti-FLAG, anti-GFP and anti-HA
[4] = target: T4, exophilin-8 PA (MBD) mutant expressed in HEK293A cells (mouse); assay: as above
[5] = target: T5, exophilin-8 (wild type) expressed in HEK293A cells (mouse); assay: as above

Row | Binder | binding [1] | binding [2] | binding [3] | binding [4] | binding [5]
1 | B1 | binds | no binding | – | – | –
2 | B2 | – | – | no binding | binds | binds
